Reference: PubChem BioAssay AID686979 (National Center for Advancing Translational Sciences (NCATS), 2013)
Values joined by “and” are separate entries in the source; they are usually repeats but may differ in a detail not shown here. Identical values can stand only once. Screen size: about 420,000 compounds; about 50,000 (12%) were called active. Inconclusive results, whose numbers are uncertain, are shown with a selection of clear calls. Calls follow the shape of the dose curve; as a rule, active = well fitted inhibition curve with a large enough effect; inconclusive = small, poorly fitted or top-dose-only effect; inactive = flat fitted curve, though single readings scatter. Potencies beside an inconclusive call are fits to weak or partial responses and may not hold up.

test: qHTS for Inhibitors of human tyrosyl-DNA phosphodiesterase 1 (TDP1): qHTS in cells in presence of CPT; details: chicken DT40 Tdp1-/-;hTDP1 cells + 20 nM CPT, ATP luminescence, 48 h; activity change, negative = growth inhibition: at 46.2 µM (top of the series) unless noted; also: nearly all actives have a fitted effect of over 55% in size
How it was run: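 Chicken DT40 Tdp1-/- cells complemented with human TDP1, 400 cells/well, exposed to compounds plus 20 nM camptothecin for at least 48 h at 37 C; viability read as ATP content by CellTiter-Glo luminescence.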
% is scaled to controls: 0 for no effect and ±100 for the full control effect; potency is read from the fitted curve at half-maximal effect; tags tell the direction and shape of the fitted curve.

| SMILES | Potency | activity change, negative = growth inhibition |
| --- | --- | --- |
| CCOC(=O)c1c(C)[nH]c(CCC(=O)Nc2ccc(N(CC)CC)cc2C)c1C | active: 13 µM |  |
| O=C(CN1CCN(S(=O)(=O)c2cc(Cl)ccc2Cl)CC1)Nc1ccc2c(c1)OCCO2 | inconclusive: 29.1 µM [inhibitor, single point] |  |
| COc1ccc2cc(C#CC3=CC(=O)C[C@H](c4ccc(F)cc4)C3)ccc2c1 | inconclusive: 20.6 µM [inhibitor, single point] |  |
| COc1ccc(N(C(=O)COc2cccc(C)c2)S(=O)(=O)c2ccc(C)cc2)cc1 | active: 18.4 µM |  |
| O=C(/C=C(\O)c1ccc(Cl)cc1)C(=O)NNC(=O)C(O)(c1ccccc1)c1ccccc1 | inconclusive: 29.1 µM [inhibitor, single point] |  |
| CCOc1ccc(/C=N/NC(=O)C(=O)N2CCCCCC2)c2ccccc12 | inconclusive: 13 µM [inhibitor, partial curve] |  |
| COc1ccc(N(CC(=O)Nc2ccc3c(c2)OCO3)S(C)(=O)=O)c(OC)c1 | inactive |  |
| COc1c(C)cc(Br)cc1C(=O)Nc1ccc(C)cc1[N+](=O)[O-] | inconclusive: 16.4 µM [inhibitor, partial curve] |  |
| CNc1nc2c(N)ncnc2n1[C@H]1O[C@@H](CO)[C@H](O)[C@@H]1O | inconclusive: 14.6 µM [inhibitor, partial curve] |  |
| COc1ccc(/C=C/C(=O)c2c(O)c(OC)c3occc3c2OC)cc1OC | active: 11.2 µM |  |
| Nc1nc2ccccc2n1S(=O)(=O)c1ccccc1 | inconclusive: 20.6 µM [inhibitor, single point] |  |
| CCNC(=O)c1ccc(OCC(=O)Nc2ccc(F)cc2)c(OC)c1 | inactive |  |
| Cc1ccc(-n2ccnc(SCC(=O)NC3CCCC3)c2=O)cc1Cl | inconclusive: 16.4 µM [inhibitor, single point] |  |
| Cc1ccc(CNC(=O)[C@H](C)[C@H]2C[C@]2(C)[C@H](NC(=O)OCc2ccccc2)c2ccccc2)o1 | inconclusive: 20.6 µM [inhibitor, single point] |  |
| CCOc1ccc(C(C)NC(=S)NCc2ccc(Cl)cc2)cc1 (stereo unspecified) | inconclusive: 23.1 µM [inhibitor, single point] |  |
| Cn1c(=O)c2c(nc(Oc3ccc4c(c3)OCO4)n2Cc2ccc(F)cc2)n(C)c1=O | inconclusive: 20.6 µM [inhibitor, single point] |  |
| CCCCN(C)CCCNC(=O)CS(=O)Cc1nc(-c2ccc(OC)c(OC)c2)oc1C (stereo unspecified) | inactive |  |
| COc1ccccc1CN1CCC(CNS(=O)(=O)c2cc(-c3cc(C)no3)ccc2C)CC1 | inconclusive: 25.9 µM [inhibitor, single point] |  |
| CCN1CC=C2C(C#N)=C(N)C(C#N)(C#N)C(CCc3ccccc3)C2C1 (stereo unspecified) | inconclusive: 29.1 µM [inhibitor, single point] |  |
| CSCCC1NC2(C(=O)Nc3ccc(Cl)cc32)[C@@H]2C(=O)N(C3CCCC3)C(=O)[C@H]12 (stereo partly specified) | inconclusive: 29.1 µM [inhibitor, single point] |  |
| Cc1c(C2CCN(CCc3ccccc3)CC2)noc1-c1ccc(Cl)cc1 | active: 11.6 µM |  |
| Cc1ccc(S(=O)(=O)N(Cc2nc(-c3ccc(Cl)cc3)no2)C2CCCCC2)cc1 | active: 16.4 µM |  |

| SMILES | Potency | activity change, negative = growth inhibition |
| --- | --- | --- |
| O=C(NCc1cccnc1)c1ccc(S(=O)(=O)N2CCCCC2)cc1 | inconclusive: 29.1 µM [inhibitor, single point] |  |
| Cc1cc(=O)[nH]c(N/N=C/c2ccc(Cl)cc2Cl)n1 | inactive |  |
| COc1ccccc1N1CCN(CCC(=O)Nc2cccc(F)c2)CC1 | inactive and inconclusive: 20.6 µM [inhibitor, single point] |  |
| Cc1ccc(CN2CCC(NC(=O)c3ccccc3)CC2)cc1 |  | inconclusive: -31.3% [inhibitor] |
| O=C(NC1CC1)C1=C[C@@H](c2ccc(C(F)(F)F)cc2)C[C@@H](OCc2ccc(CO)cc2)O1 | inconclusive: 18.4 µM [inhibitor, single point] |  |
| O=C(Cc1ccc(S(=O)(=O)N2CCOCC2)s1)N1CCN(S(=O)(=O)c2ccccc2[N+](=O)[O-])CC1 | inconclusive: 20.6 µM [inhibitor, partial curve] |  |
| Cc1c(C(=O)NCc2cccc([N+](=O)[O-])c2)sc(=O)n1Cc1ccc(F)cc1 | active: 16.4 µM |  |
| CC(=O)Oc1ccc(/C(C)=N\N2CCN(Cc3ccc(Cl)cc3)CC2)cc1 | inconclusive: 16.4 µM [inhibitor, partial curve] |  |
| O=C1CCC(C(=O)N2CCSCC2)CN1CCc1ccccc1 (stereo unspecified) | inactive |  |
| COc1ccc(-c2ccnc3c(C(=O)O)cnn23)cc1 | inactive |  |
| CCN1C(=O)C(O)(C2COC(C)(C)CC2=O)c2cc(Br)ccc21 (stereo unspecified) | active: 1.3 µM |  |
| COc1ccc(S(=O)(=O)Nc2cccc3c2O[C@H](CN(C)C(=O)Nc2ccc(C(F)(F)F)cc2)[C@@H](C)CN([C@H](C)CO)C3=O)cc1 | inconclusive: 29.1 µM [inhibitor, single point] |  |
| COc1ccc2c(c1)C1(Nc3ccccc3-c3nc4ccccc4n31)C(=O)N2C (stereo unspecified) | inconclusive: 29.1 µM [inhibitor, single point] |  |
| CCc1nnc(NC(=O)Cc2ccc(OC)c(OC)c2)s1 | inactive |  |
| O=C(c1ccc2c(c1)OCCO2)N1CCN(c2ccccn2)CC1 | inactive |  |
| CCCCC(=O)NC(=S)Nc1cccc(NC(=O)c2ccccc2)c1 |  | inconclusive: -30.7% [inhibitor] |
| Cc1ccc(C(C)C)c(OCC(O)CN2CC(C)OC(C)C2)c1 (stereo unspecified) | inconclusive: 15.8 µM [inhibitor, partial curve] |  |
| COC(=O)/C(=C\Nc1ccc(Cl)c2ccccc12)c1ncc(C(F)(F)F)cc1Cl | inconclusive: 29.1 µM [inhibitor, single point] |  |
| O=C(CNC(=O)c1nc[nH]c1C(=O)NCc1ccccc1)OCc1ccccc1 | inconclusive: 29.1 µM [inhibitor, single point] |  |
| Cc1onc(-c2ccccc2)c1C(=O)N/N=C/c1ccc(Br)cc1 |  | inconclusive: -32.6% [inhibitor] |
| CCOC(=O)c1ccc(NS(=O)(=O)c2cc3c(cc2C)n(C)c(=O)c(=O)n3C)cc1 | inconclusive: 18.4 µM [inhibitor, partial curve] |  |
| COc1cc(OC)cc(C(=O)NCc2ccc3c(c2)cc(C)n3C)c1 | inconclusive: 11.6 µM [inhibitor, single point] |  |

| SMILES | Potency | activity change, negative = growth inhibition |
| --- | --- | --- |
| Cc1ccc(S(=O)(=O)C[C@@H]2OC[C@H](C)N2S(=O)(=O)c2ccc(C)cc2)cc1 | inconclusive: 20.6 µM [inhibitor, partial curve] |  |
| O=C(Nc1ccccc1N1CCOCC1)C1=NN(c2c(F)c(F)cc(F)c2F)C(=O)CC1 | inconclusive: 0.58 µM [inhibitor, full curve, poor fit] |  |
| COc1cc2c(ccc3cc(OC)c(OC)c(O)c32)cc1O | active: 7.31 µM |  |
| O=C1CC(SC(=Nc2ccccc2)Nc2ccccc2)C(=O)N1c1cccc2ccccc12 (stereo unspecified) | inconclusive: 25.9 µM [inhibitor, single point] |  |
| CCCCSCCCNC(=O)CN1C(=O)COc2ccc(S(=O)(=O)N3CCCC3)cc21 | inconclusive: 25.9 µM [inhibitor, single point] |  |
| COc1ccccc1Nc1nc(-c2sc(NC(=O)CC(C)C)nc2C)cs1 | inconclusive: 29.1 µM [inhibitor, single point] |  |
| CN(CC(=O)NCCc1ccc(F)cc1)Cc1ccc(Br)cc1 | inactive |  |
| O=C(NCCN1C(=O)S/C(=C\c2cccc(Cl)c2Cl)C1=O)C1=COCCO1 | active: 1.46 µM |  |
| COc1ccc(CNc2nc(-c3ccc(OC)c(OC)c3)cc(C(F)(F)F)n2)cc1 | inconclusive: 20.6 µM [inhibitor, single point] |  |
| O=C(Cn1c(=O)n(-c2ccccc2)c(=O)c2ccc(C(=O)NCc3ccc4c(c3)OCO4)cc21)Nc1ccc(Br)cc1F | inconclusive: 16.4 µM [inhibitor, partial curve] |  |
| CC1CCN(c2ccccc2NC(=S)NC(=O)c2ccc(-c3cccc([N+](=O)[O-])c3)o2)CC1 | inconclusive: 29.1 µM [inhibitor, single point] |  |
| CCOc1ccc(NC(=O)CSc2oc(-c3cccs3)nc2S(=O)(=O)c2ccc(Cl)cc2)cc1 | active: 18.4 µM |  |
| CSc1ccc(CN2CCC(C)(Oc3cccc(F)c3)C2)cc1 (stereo unspecified) | inconclusive: 29.1 µM [inhibitor, single point] |  |
| O=C1[C@H]2[C@H](C=CC[C@H]2C(=O)N2CCN(c3ccccc3)CC2)CCN1Cc1ccc(Cl)c(Cl)c1 | active: 16.4 µM |  |
| CCOCCCn1c(C)nc2c(c1=O)c1nc3ccccc3nc1n2-c1ccc2c(c1)OCCO2 | inconclusive: 29.1 µM [inhibitor, single point] |  |
| Cc1c(Cl)cccc1NC(=S)N(Cc1ccco1)C(C)c1ccccn1 (stereo unspecified) | inconclusive: 29.1 µM [inhibitor, single point] |  |
| Cc1cc(F)ccc1-c1cc(C(=O)NCc2ccccc2)[nH]n1 | active: 25.9 µM |  |
| Cc1cc(NC(=O)c2ccc(Cl)c(Cl)c2)ccc1-c1cc2ccccc2oc1=O | inactive |  |
| O=C(O)c1cc(N/N=C/c2ccc(N3CCOCC3)s2)ccc1Cl | inconclusive: 18.4 µM [inhibitor, single point] |  |
| CCOC(=O)c1cc(S(=O)(=O)NC2CCC(C)CC2)cn1C (stereo unspecified) | inactive |  |
| CN1CCN(C(=S)c2cn(Cc3ccccc3F)c3ccccc23)CC1 | inconclusive: 25.9 µM [inhibitor, single point] |  |
| CCCSc1ncc(Cl)c(C(=O)Nc2ccc(CC)cc2)n1 | inactive |  |
